Screen size: about 150,000 compounds; about 540 (0.36%) showed an effect of 50% or more. The list shows a part of the results.

The test system of the assay is Plasmodium falciparum. In words: Primary screen in NF54 nanoGlo assay, in single point, at 2uM, 72h; a lower Z score goes with more inhibition. Format: functional, Erythrocyte. The conditions noted are these: timepoint 72 hour.
Usually % Inhibition stands for the drop in the measured response relative to a control, in per cent. Regarding `O=C(C(=O)N1CCN(c2ccc(F)cc2)CC1)N1CCCCC1`, the “% Inhibition” value was -12% and the Z score is listed as 1.45.

`Cc1nc([C@H](C)n2ccnc2-c2ccncc2)cs1`: the “% Inhibition” value came out at 2% and the Z score was -0.28.

`CCCc1nnc(N(C)CCC(F)(F)F)s1`: the “% Inhibition” value is -4% and the Z score turned out to be 0.39.

As for `CN(CCC1(O)CCCC1)C(=O)c1ccc(-c2ncccn2)cc1`, the “% Inhibition” value is on record as -23% and the Z score amounted to 2.73.

Regarding `Cc1ncc2c(c1-c1noc(CCCC(=O)c3ccccc3)n1)CCNC2`, the “% Inhibition” value was -16% and the Z score amounted to 1.74.

`O=S(=O)(NCCOc1ncc(Cl)cc1Cl)C1COC1`: the “% Inhibition” value is listed as -9% and the Z score is recorded as 1.29.

With `CCOCCCNC(=O)c1nc(CCS(=O)(=O)c2ccccc2)no1`, the “% Inhibition” value is listed as -10% and the Z score is 1.43.

With `Cc1noc(-c2ccccc2NS(=O)(=O)c2ccccc2)n1`, the “% Inhibition” value is on record as -6% and the Z score turned out to be 0.61.

As to `CCc1c(C(=O)N2CCN3CCN(C)C(=O)[C@@H]3C2)csc1C`, the “% Inhibition” value is given as 0% and the Z score is -0.03.

On to `Cc1ccc(CC(=O)Nc2cc(Cl)cc(C(=O)O)c2)cn1`, for which the “% Inhibition” value was -4% and the Z score turned out to be 0.78.

Consider `O=C(NCC(c1ccccc1Cl)N1CCOCC1)C1CC2CCC1C2` (configuration not stated), for which the “% Inhibition” value is recorded as -19% and the Z score was 2.45.

Consider `Cc1cc(CO)cc(-c2cc3c(cc2CO)OCO3)n1`, for which the “% Inhibition” value is given as 7% and the Z score is reported as -0.82.

For the compound `N#CC1CCN(C(=O)CCc2ccco2)CC1`, the “% Inhibition” value was determined as 2% and the Z score is -0.23.

Consider `CN(C)c1ccc(C[C@@H]2C(=O)N(C)c3ccc(Br)cc32)cc1`, for which the “% Inhibition” value amounted to 9% and the Z score was -0.79.

Consider `O=C(c1ccncc1F)N1CC(CN2C(=O)CCC2=O)C1`, for which the “% Inhibition” value is given as 5% and the Z score is reported as -0.73.

With `Cc1cccc(NC2CCN(S(=O)(=O)N(C)C(C)C)CC2)n1`, the “% Inhibition” value is -3% and the Z score came to 0.43.

Regarding `Cc1cccc2c1NC(c1ccc(Cl)cc1)CC2C` (configuration not stated), the “% Inhibition” value turned out to be 3% and the Z score is recorded as -0.4.

Take `Cc1nn(C)c(Cl)c1-c1noc(C2CC3CCC2O3)n1` (configuration not stated): the “% Inhibition” value is -2% and the Z score was determined as 0.25.

Consider `CN(Cc1cnccn1)C[C@@H](C#N)CCC#N`, for which the “% Inhibition” value is reported as -4% and the Z score was determined as 0.51.

Regarding `CCc1nc(CN(C)C(=O)c2ccc3c(c2)OCC(=O)N3)cs1`, the “% Inhibition” value is on record as -18% and the Z score came to 1.61.

In the case of `COC(=O)c1ccccc1NC(=O)c1ccc(-n2nnc3cccnc32)c(C)c1`, the “% Inhibition” value turned out to be 4% and the Z score is -0.49.

On to `COc1ccc(C2(NC[C@H]3CCCC(F)(F)C3)CCOCC2)cc1F`, for which the “% Inhibition” value worked out at 1% and the Z score was -0.26.

With `COc1cccc(CN(C)c2cncc(C(=O)N(C)C)n2)c1`, the “% Inhibition” value is listed as -1% and the Z score worked out at 0.11.

Take `COc1ccccc1CC(C)(C)NC(=O)Cc1csc(C)n1`: the “% Inhibition” value is recorded as -5% and the Z score is recorded as 0.88.

For `Cc1cc(C(=O)N2CC[C@@](O)(C3CCOCC3)[C@H](C)C2)c(C)o1`, the “% Inhibition” value is given as -7% and the Z score was 1.03.

On to `O=C(CCC1CCCC1)N1CC[C@H](n2cc(COc3cnccn3)nn2)C1`, for which the “% Inhibition” value is on record as -11% and the Z score came to 1.55.

Consider `CC(C)c1nccc(CN2CCOC[C@@H]2CC(=O)NC2CC=CC2)n1`, for which the “% Inhibition” value was determined as 5% and the Z score is reported as -0.7.

For the compound `Cc1cccc(CS(=O)(=O)N2CCC(C(=O)N3CCCC3)CC2)c1`, the “% Inhibition” value is -4% and the Z score turned out to be 0.76.

In the case of `Cc1ccc(NC(=O)NC(=O)[C@H](C)NCC2(N3CCOCC3)CCCCC2)c(C)c1`, the “% Inhibition” value was -11% and the Z score was 2.1.

Take `CN1CCc2c(C#N)c(N3CCOCC3)nc(N3CCCCC3)c2C1`: the “% Inhibition” value is recorded as -5% and the Z score turned out to be 0.92.

As for `O=C(N[C@H]1COc2cc(F)c(Br)cc21)c1ncoc1C1CC1`, the “% Inhibition” value is -10% and the Z score worked out at 1.98.

`Cc1noc([C@H]2CCCN(C(=O)c3oc4c(Cl)cccc4c3C)C2)n1`: the “% Inhibition” value is -14% and the Z score came out at 1.26.

Consider `FC(F)(F)c1cccc(NCn2nc(-c3ccccc3)oc2=S)c1`, for which the “% Inhibition” value is given as -4% and the Z score came to 0.63.

As for `CC(C)NC(=O)C[C@H](C)NC(=O)c1c(F)cccc1Br`, the “% Inhibition” value is -15% and the Z score is given as 1.23.

As for `CCOC1CN(C(=O)c2cccc3sc(C(F)(F)F)nc23)C1`, the “% Inhibition” value is recorded as -2% and the Z score came out at 0.3.

Consider `O=S(=O)(NC[C@]1(O)CCCc2occc21)c1ccc(-n2cccn2)cc1`, for which the “% Inhibition” value is recorded as -3% and the Z score is recorded as 0.39.

Regarding `COc1ccc(N2C(=O)C(=O)N(CC(=O)c3cc(C)n(-c4ccc5c(c4)OCCO5)c3C)C2=O)cc1`, the “% Inhibition” value is -45% and the Z score came to 5.31.

With `Cc1csc(CNS(=O)(=O)c2cccc3nn(C)nc23)n1`, the “% Inhibition” value is listed as -19% and the Z score is 2.9.

`Cn1nc(CN2CCCc3c2cccc3C(F)(F)F)[nH]c1=O`: the “% Inhibition” value was -1% and the Z score worked out at 0.1.

As for `CO[C@@H](C)c1ccc(-c2ncnc3sc(C)cc23)cc1`, the “% Inhibition” value is listed as -11% and the Z score is given as 2.04.

Regarding `O=C1[C@@H]2CCN(S(=O)(=O)c3ccccc3F)CCN2C(=O)CN1Cc1ccccc1`, the “% Inhibition” value is -10% and the Z score was determined as 1.38.

For the compound `O=C(NC1CC1)c1cn2c3c(cc(Br)cc3c1=O)CC2`, the “% Inhibition” value is on record as 6% and the Z score is listed as -0.75.

In the case of `C[C@]1(Cc2cccc(F)c2)CCCN1C(=O)c1cccnn1`, the “% Inhibition” value was determined as 2% and the Z score is -0.5.

For `O=S(=O)(NCC1(c2cccs2)CCCCC1)C1CCOCC1`, the “% Inhibition” value is listed as -14% and the Z score is 1.6.

With `CC1=NN(c2ccc(Cl)cc2)C(=O)C12Cc1ccc(Cl)cc1N1CCOCC12` (configuration not stated), the “% Inhibition” value is reported as 1% and the Z score is -0.19.

For `CCn1nnc2cc(C(=O)N3CCC(C(=O)Nc4ccc(Br)c(C)c4)CC3)ccc21`, the “% Inhibition” value was 0% and the Z score is given as -0.02.

Take `O=C(Nc1cccc(F)c1)[C@H]1CNCCO1`: the “% Inhibition” value is given as -3% and the Z score amounted to 0.25.

`O=C(NC1CC2C(=O)Nc3ccccc3N2C1)c1ccc2nsnc2c1` (configuration not stated): the “% Inhibition” value was -7% and the Z score is 0.88.

Consider `O=C(CS(=O)(=O)c1cccs1)NCCc1ccccc1`, for which the “% Inhibition” value is -9% and the Z score came to 1.64.

For `CN(Cc1ccco1)C(=O)NC1CCCC1`, the “% Inhibition” value is on record as 4% and the Z score is recorded as -0.66.

For the compound `O=C1C[C@@H](C(=O)Nc2ccc3[nH]ncc3c2)CCN1`, the “% Inhibition” value came to 2% and the Z score is reported as -0.33.

For the compound `CCc1ccccc1Nc1c2c(nc3ccccc13)CCCC2`, the “% Inhibition” value is 9% and the Z score is given as -1.19.

Consider `CCc1nc(-c2ccc(C(=O)NC3CCCCC3)cc2)no1`, for which the “% Inhibition” value is given as -3% and the Z score worked out at 0.28.

As for `CC(O)(CN1CCCC1c1ccco1)c1ccc(S(C)(=O)=O)cc1` (configuration not stated), the “% Inhibition” value is recorded as -3% and the Z score was determined as 0.32.

In the case of `CCN1CCN(C(=O)c2n[nH]c3c2CN(C(=O)Cc2cccc(C)c2)CC3)CC1`, the “% Inhibition” value came out at 11% and the Z score is listed as -1.26.

For `Cc1cc(C(F)F)oc1C(=O)Nc1nnnn1C1CC1`, the “% Inhibition” value worked out at 3% and the Z score is -0.56.

The values above are taken from ChEMBL document CHEMBL4888484, “Replenishing the malaria drug discovery pipeline: Screening and hit evaluation of the MMV Hit Generation Library 1 (HGL1) against asexual blood stage Plasmodium falciparum ,using a nano luciferase reporter read-out” (2022).
